Source: PubChem BioAssay AID493005 (National Center for Advancing Translational Sciences (NCATS), 2010)
Screen size: about 340,000 compounds; fewer than 10 were called active. The shares of active, inactive and inconclusive entries below differ from those in the screen. Calls follow the shape of the dose curve; as a rule, active = well fitted inhibition curve with a large enough effect in the main read-out, with a control signal flat (not every such curve was filed as active); inconclusive = small, poorly fitted or top-dose-only effect, or effect the other way, or a change in a side signal; inactive = no such curve, though single readings can be large or run the other way. Where the call is inconclusive, the potency comes from a doubtful curve fit. A note “side channel” means that the fit belongs to a control or component signal, not to the main read-out.

target: Tumor susceptibility gene 101 protein (Homo sapiens) (UniProt Q99816); test: qHTS Assay for Iinhibitors of HIV-1 Budding by Blocking the Interaction of PTAP/TSG101; conditions: Fluorescence polarization, FITC-PTAP peptide / Tsg101 binding; activity change, negative = inhibition: at 115 µM (top of the series); as to activity change, negative = inhibition: % of control where 0% means no effect
Source text: NIH Molecular Libraries Probe Production Network [MLPCN] NIH Chemical Genomics Center [NCGC] MLPCN Grant: 1 R03 MH087464-01A1 PI Name: Dr. Eric Freed, NCI NCGC Assay Overview: Stages of the HIV-1 replication cycle, specifically virus assembly and release, provide underexploited targets for the development of novel antiviral inhibitors. The late stages of HIV-1 replication are mediated by the Gag precursor protein, Pr55Gag. Expression of Pr55Gag is both necessary and sufficient for the production of virus-like particles from Gag-expressing cells. The Gag protein hijacks key host proteins involved in endocytic machinery of the host cell to promote endosomal processing and viral budding. The budding process requires a direct interaction between a […] (PTAP) motif in the p6 domain of Gag and the cellular endosomal sorting protein known as Tsg101. In this way, the Gag PTAP motif promotes the host cells to recruit viral particles to the plasma membrane where the new viral particles are released, effectively turning the host cells into viral factories. A fluorescence anisotropy assay has been developed to quantitatively measure the PTAP-Tsg101 interaction which can be used to screen for inhibitors of this interaction.
NCGC Assay Protocol Summary: Two uL of the Tsg101 binding domain in buffer (10 mM HEPES pH 7.5; 0.15 M NaCl, 0.01% Tween 20; 3 mM EDTA;0.1 mM TCEP) was dispensed into Greiner black MB 1536-well plates (final concentration 10 uM). Then, 23 nL of compounds or DMSO were delivered to each well using a pin tool. Finally, 2 uL of a FITC-labeled peptide containing the PTAP motif (1) in the same buffer was dispensed (50 nM final concentration) and the binding was allowed to proceed for 20 min. at r.t. Fluorescent polarization was determined using FITC excitation and polarized emission filters on a Perkin Elmer Viewlux. Keywords: Tsg101, PTAP, Gag, HIV, fluorescent polarization, MLSMR, MLPCN, NIH Roadmap, qHTS, NCGC
Potency is read from the fitted curve at half-maximal effect; tags tell the direction and shape of the fitted curve or compound fluorescence and quenching.

Chain of UniProt Q99816 (Q99816 whole entry, looked up): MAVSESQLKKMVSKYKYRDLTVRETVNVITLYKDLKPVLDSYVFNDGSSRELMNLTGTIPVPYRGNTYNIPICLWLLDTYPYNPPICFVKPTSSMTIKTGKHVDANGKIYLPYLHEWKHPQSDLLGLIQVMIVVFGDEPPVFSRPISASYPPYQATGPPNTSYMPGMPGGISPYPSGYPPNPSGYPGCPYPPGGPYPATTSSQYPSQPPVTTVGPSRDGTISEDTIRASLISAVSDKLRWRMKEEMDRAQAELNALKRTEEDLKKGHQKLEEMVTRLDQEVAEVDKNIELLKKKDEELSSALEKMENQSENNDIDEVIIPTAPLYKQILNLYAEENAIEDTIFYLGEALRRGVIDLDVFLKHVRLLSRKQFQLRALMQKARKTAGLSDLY

**Q.** Which Potency does the source give for `CN1CCN(CC(O)COc2ccccc2)CC1` (centres undefined) here?
**A.** inconclusive: 100 µM [fluorescent, side channel, single point]

**Q.** `N#C/C(=C/c1ccc(N2CCOCC2)o1)c1ccc(Br)cc1` was tested. Which Potency did it give?
**A.** inconclusive: 14.1 µM [fluorescent, side channel, full curve]

**Q.** Which “activity change, negative = inhibition” value does the source give for `COc1ccc2cc(CN(CC3COCCO3)S(=O)(=O)c3ccc(Cl)cc3)c(=O)[nH]c2c1` (centres undefined) here?
**A.** inactive: -8.93%

**Q.** Which Potency does the source give for `COc1ccccc1C(=O)Oc1ccc2c(c1)O/C(=C\c1ccncc1)C2=O` here?
**A.** inconclusive: 56.2 µM [fluorescent, side channel, partial curve, poor fit]

**Q.** With `CCOc1cc(/C=C(\C#N)c2nc(-c3cccs3)c(NC(C)=O)s2)ccc1O` as the molecule, how does the Potency read?
**A.** inconclusive: 56.2 µM [fluorescent, side channel, partial curve, poor fit]

**Q.** With `CCCN1C(=O)/C(=C/c2ccc(N3CCCC3)c(C)c2)NC1=S` as the molecule, how does the Potency read?
**A.** inconclusive: 12.6 µM [fluorescent, side channel, full curve, poor fit]

**Q.** `Cc1ccc(-c2nc3sc(C#N)c(N)n3c(=O)c2C#N)cc1` was tested. Which Potency did it give?
**A.** inconclusive: 56.2 µM [fluorescent, side channel, partial curve, poor fit]

**Q.** Which Potency does the source give for `Cc1ccc(C(=O)N/N=C\c2ccc(-c3ccc([N+](=O)[O-])cc3)o2)cn1` here?
**A.** inconclusive: 50.1 µM [fluorescent, side channel, partial curve, poor fit]

**Q.** With `CCOC(=O)C1=C(C)N=c2s/c(=C\c3ccc(OCC(=O)O)cc3)c(=O)n2C1c1ccc(Cl)cc1` (centres undefined) as the molecule, how does the Potency read?
**A.** inconclusive: 70.8 µM [fluorescent, side channel, partial curve]

**Q.** Which “activity change, negative = inhibition” value does the source give for `CCCc1ccccc1OCCNS(=O)(=O)c1cc2c(cc1C)OCC(=O)N2` here?
**A.** inactive: -0.209%

**Q.** With `Cc1cc(C)c(OCC(=O)OCCNC(=O)c2cccnc2)c(C)c1` as the molecule, how does the “activity change, negative = inhibition” value read?
**A.** inactive: -1.87%

**Q.** Which “activity change, negative = inhibition” value does the source give for `Cc1ccc(S(=O)(=O)Nc2c(C)nn(C)c2C)cc1` here?
**A.** inactive: 1.22%

**Q.** With `COc1ccc(Cn2c(O)c(C=Nc3ccc(O)cc3)c3ccccc3c2=O)cc1` as the molecule, how does the Potency read?
**A.** inconclusive: 56.2 µM [fluorescent, side channel, partial curve, poor fit]

**Q.** With `Oc1ccccc1N=Cc1c(O)ccc2oc3c(c12)CCCC3` as the molecule, how does the Potency read?
**A.** inconclusive: 50.1 µM [fluorescent, side channel, partial curve, poor fit]

**Q.** For `COc1cc(OC)c(OC)cc1/C=C1\CC(C)C/C(=C\c2cc(OC)c(OC)cc2OC)C1=O` (centres undefined), which Potency is on record?
**A.** inconclusive: 79.4 µM [fluorescent, side channel, partial curve, poor fit]

**Q.** For `CCN(CC)c1ccc2cc(C(N)=O)c(=N)oc2c1`, which Potency is on record?
**A.** inconclusive: 50.1 µM [fluorescent, side channel, partial curve, poor fit]

**Q.** Which Potency does the source give for `N#C/C(=C/c1ccc(N2CCOCC2)o1)C(=O)N1CCOCC1` here?
**A.** inconclusive: 50.1 µM [fluorescent, side channel, partial curve, poor fit]

**Q.** How did the “activity change, negative = inhibition” value turn out when `Cc1cccc(-c2cc3nc(-c4ccccc4)cc(N4CCC5(CC4)OCCO5)n3n2)c1` was run?
**A.** inactive: -1.65%

**Q.** For `COc1ccc(NC(=O)/C(Cl)=C(/Cl)S(=O)Cc2ccccc2)cn1` (centres undefined), which “activity change, negative = inhibition” value is on record?
**A.** inactive: -3.11%

**Q.** With `COc1ccc(Nc2nc(-c3cccnc3)nc3ccccc23)cn1` as the molecule, how does the Potency read?
**A.** inconclusive: 56.2 µM [falling, partial curve, poor fit]

**Q.** `N#Cc1c(C(F)(F)F)cc(-c2ccccc2)nc1SCc1nc(N)nc(N2CCOCC2)n1` was tested. Which Potency did it give?
**A.** inconclusive: 56.2 µM [fluorescent, side channel, partial curve, poor fit]

**Q.** Which Potency does the source give for `CCCN(CCC)c1ccc(/C=C/c2ccc3cc(OCC)ccc3n2)cc1` here?
**A.** inconclusive: 39.8 µM [fluorescent, side channel, partial curve, poor fit]

**Q.** For `COc1cccc(/C=N/NC(=O)C(=O)N/N=C/c2cccc(OC)c2OC)c1OC`, which “activity change, negative = inhibition” value is on record?
**A.** inactive: -3%

**Q.** How did the “activity change, negative = inhibition” value turn out when `COc1ccccc1C(=O)NCCC(=O)NCc1ccncc1` was run?
**A.** inactive: -4.79%

**Q.** How did the Potency turn out when `CCN(CC)c1ccc2cc(-c3nnc(-c4ccccc4)o3)c(=O)oc2c1` was run?
**A.** inconclusive: 50.1 µM [fluorescent, side channel, partial curve]

**Q.** With `CC(=O)Nc1ccc(N=Cc2c(O)ccc3ccccc23)cc1` as the molecule, how does the Potency read?
**A.** inconclusive: 79.4 µM [fluorescent, partial curve, poor fit]

**Q.** Which Potency does the source give for `CC(=O)CSc1nc2cc3c(cc2cc1C#N)OCCO3` here?
**A.** inconclusive: 79.4 µM [fluorescent, side channel, partial curve, poor fit]

**Q.** `O=C(Cc1cccc(C(F)(F)F)c1)Nc1ccc(S(=O)(=O)N2CCCC2)cc1` was tested. Which “activity change, negative = inhibition” value did it give?
**A.** inactive: -0.0975%

**Q.** For `Cc1cc(C(=O)N/N=C/c2cc([N+](=O)[O-])ccc2O)c2ccccc2n1`, which “activity change, negative = inhibition” value is on record?
**A.** inactive: -0.472%

**Q.** Which “activity change, negative = inhibition” value does the source give for `O=c1[nH]c(=S)[nH]nc1Cc1ccc(Cl)c(Cl)c1` here?
**A.** inactive: -9.04%

**Q.** Which “activity change, negative = inhibition” value does the source give for `Cc1cccc(C(=O)OCC(=O)NC(=O)c2ccccc2)c1O` here?
**A.** inactive: -1.22%

**Q.** How did the “activity change, negative = inhibition” value turn out when `COc1ccc(Br)cc1S(=O)(=O)NCCc1cccs1` was run?
**A.** inactive: -8.92%

**Q.** `CC12c3ccccc3C(c3ccccc31)C1C(=O)N(Cc3cccnc3)C(=O)C12` (centres undefined) was tested. Which Potency did it give?
**A.** inconclusive: 39.8 µM [quencher, side channel, single point]

**Q.** With `O=C(N/N=C/c1c(O)ccc2ccccc12)c1ccc(CO)nc1` as the molecule, how does the Potency read?
**A.** inconclusive: 56.2 µM [fluorescent, side channel, partial curve, poor fit]

**Q.** For `COc1cc([N+](=O)[O-])cc(/C=N/NC(=O)C(C)Nc2cccc(C)c2)c1O` (centres undefined), which “activity change, negative = inhibition” value is on record?
**A.** inactive: -0.996%

**Q.** For `COc1ccc(N=Cc2c(O)n(-c3cccc(C)n3)c(=O)c3ccccc23)c(OC)c1`, which Potency is on record?
**A.** inconclusive: 56.2 µM [fluorescent, side channel, partial curve, poor fit]

**Q.** Which Potency does the source give for `O=C(COC(=O)Cn1cnc2ccccc21)Nc1cccc2c1C(=O)c1ccccc1C2=O` here?
**A.** inconclusive: 56.2 µM [fluorescent, side channel, partial curve, poor fit]

**Q.** Which Potency does the source give for `N#C/C(C(=O)Oc1ccccc1)=C1\C=Cc2ccccc2N1` here?
**A.** inconclusive: 79.4 µM [fluorescent, side channel, partial curve, poor fit]

**Q.** Which Potency does the source give for `CCOC(=O)C1=C(c2ccccc2)N=c2s/c(=C\c3ccc(O)cc3)c(=O)n2C1c1cccs1` (centres undefined) here?
**A.** inconclusive: 79.4 µM [fluorescent, side channel, single point]

**Q.** Which Potency does the source give for `CCCN1CCN(S(=O)(=O)c2cn(C)nc2C)CC1` here?
**A.** inconclusive: 50.1 µM [fluorescent, side channel, partial curve, poor fit]

**Q.** For `Cn1nc(-c2ccccc2)c2nc3ccccc3nc21`, which Potency is on record?
**A.** inconclusive: 79.4 µM [fluorescent, side channel, partial curve]

**Q.** Which Potency does the source give for `Cc1ccccc1-n1nc(C)c2c1N=C1C(Cl)=CC(Cl)=CN1C2c1ccc(C(=O)O)cc1` (centres undefined) here?
**A.** inconclusive: 56.2 µM [falling, partial curve, poor fit]

**Q.** How did the Potency turn out when `NS(=O)(=O)c1ccc(N=Nc2c[nH]c(=O)c(O)c2)cc1` was run?
**A.** inconclusive: 50.1 µM [fluorescent, partial curve, poor fit]

**Q.** For `O=C(c1ccccc1)c1ccc(O)cc1O`, which Potency is on record?
**A.** inconclusive: 50.1 µM [fluorescent, side channel, partial curve, poor fit]

**Q.** For `Oc1ccc2ccc3cccc[n+]3c2c1`, which Potency is on record?
**A.** inconclusive: 56.2 µM [fluorescent, side channel, partial curve]

**Q.** How did the Potency turn out when `C=CCn1c(=O)/c(=C/c2cc(OC)c(OC)c(OC)c2)s/c1=C(/C#N)c1nc2ccccc2n1C` was run?
**A.** inconclusive: 56.2 µM [fluorescent, side channel, partial curve, poor fit]

**Q.** How did the “activity change, negative = inhibition” value turn out when `c1ccc2c(c1)nc(N1CCOCC1)c1c3ccccc3[nH]c21` was run?
**A.** inactive: -3.13%

**Q.** How did the “activity change, negative = inhibition” value turn out when `S=C(NCC1CCCO1)N1CCN(c2nc(-c3ccc(Cl)cc3)cs2)CC1` (centres undefined) was run?
**A.** inactive: 1.63%

**Q.** With `N#CC1=C(N)SC(N)=C(C#N)C1c1cccc(O)c1` as the molecule, how does the Potency read?
**A.** inconclusive: 56.2 µM [fluorescent, side channel, partial curve, poor fit]

**Q.** Which “activity change, negative = inhibition” value does the source give for `COc1ccc(-n2cnc3cc(NCc4ccccn4)ccc32)cc1` here?
**A.** inactive: 1.29%

**Q.** For `CCOC(=O)N1CCN(c2cc(NCCC(=O)O)c3c4c(onc24)-c2ccccc2C3=O)CC1`, which Potency is on record?
**A.** inconclusive: 56.2 µM [fluorescent, side channel, partial curve, poor fit]

**Q.** Which Potency does the source give for `CN1/C(=C\C=C(C#N)C#N)C(C)(C)c2ccccc21` here?
**A.** inconclusive: 50.1 µM [fluorescent, side channel, partial curve, poor fit]

**Q.** With `CCN1CCc2c(sc(NC(=O)Cc3ccccc3)c2C(=O)OC)C1` as the molecule, how does the “activity change, negative = inhibition” value read?
**A.** inactive: -0.506%

**Q.** Which Potency does the source give for `CCOC(=O)/C(C#N)=C/c1ccc(-c2ccsc2C(=O)OC)o1` here?
**A.** inconclusive: 56.2 µM [fluorescent, side channel, partial curve, poor fit]

**Q.** How did the “activity change, negative = inhibition” value turn out when `COc1cccc(NC(=O)c2ccc(CN3CCOCC3)cc2)c1` was run?
**A.** inactive: -1.06%

**Q.** For `O=C1/C(=C\c2ccc(-c3ccccc3Cl)o2)SC(=S)N1CC1CCCO1` (centres undefined), which Potency is on record?
**A.** inconclusive: 50.1 µM [fluorescent, side channel, partial curve, poor fit]

**Q.** `CN(/C=C/C(=C/C=[N+](C)c1ccccc1)OCCCS(=O)(=O)[O-])c1ccccc1` was tested. Which Potency did it give?
**A.** inconclusive: 56.2 µM [fluorescent, side channel, partial curve, poor fit]

**Q.** With `CCOC(=O)C1Nc2ccccc2C2C(O)C(O)CC12` (centres undefined) as the molecule, how does the Potency read?
**A.** inconclusive: 39.8 µM [falling, partial curve]

**Q.** How did the Potency turn out when `CCn1cc(/C=C/c2cc[n+](C)cc2)c2ccccc21` was run?
**A.** inconclusive: 56.2 µM [fluorescent, side channel, partial curve, poor fit]
